Drawing on the supplement of paper PMC10126150, this text covers switch fluorescence ratio for 67 sequences.

In the series the test system is ATP. Kind of series: switch fluorescence ratio, 500 uM ATP over buffer (Cy3 cluster intensity, sum of 5 cycles each) (fold (ratio)); higher = stronger signal-on switching upon ATP binding; sequences stand for … in TCGTCGGCAGCGTCAGATGTGTATAAGAGACAGTTTTTTTTTTTTTTTTTTTTTTTTT…TC. The settings on record: aptamer strand: ATP DNA aptamer (quencher-CACCTGGGGGAGTATTGCGGAGGAAGG + anchor), 100 nM annealed; ATP concentration: 500 uM; one replicate. The gist of the method: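 Exposure to 500 uM ATP lasted 15 min at 22 °C before imaging, and a selection-buffer image was taken beforehand, for Cy3-labelled switching-strand clusters on a modified Illumina MiSeq flow-cell annealed to 100 nM quencher-labelled ATP aptamer. Five buffer/ATP cycles were run with NaOH stripping and re-annealing between them. The fluorescence ratio per cluster is summed target-cycle over summed buffer-cycle Cy3 intensity, averaged per switch-domain sequence. Clusters outside 100-1000 RFU were excluded.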

Values marked as one replicate rest on one cluster of the flow cell; about a third of the high ones do not repeat.

As for TGGGACATTG, the switch fluorescence ratio was determined as 0.993.
For the sequence GACGTGACTG, the switch fluorescence ratio is 0.937.
Regarding ACGACAAATG, the switch fluorescence ratio amounted to 1.04.
As for ACTATTTTAG, the switch fluorescence ratio is 0.982.
As for GGGTTCCC, the switch fluorescence ratio was 0.965.
Take AGCGTAGAAG: the switch fluorescence ratio came out at 0.992.
As for GGCTTAAGT, the figure is 0.989; as for TGGTATGGAC, 1.02; as for TATGGGTAGT, 1.
Regarding GTGTTCCGCG, the switch fluorescence ratio was found to be 1.02.
TTACGCTAGT: the switch fluorescence ratio turned out to be 1.03.
In the case of CATGCGTCCG it was 1.03.
For TTGATGTAAT, the switch fluorescence ratio was 0.978.
In the case of ACATCGGAGC it was 1.04; in that of TAGCGATCCC, 1.19.
As to AAAACTTGAC, the switch fluorescence ratio stood at 1.05.
In the case of GAAGAGCTTT, the switch fluorescence ratio is 1.08.
Regarding TCACACCTTA, the switch fluorescence ratio amounted to 1.09.
Take TTGATAAATA: the switch fluorescence ratio came to 1.37.
As for TGCTTGAACG, the figure is 0.987; as for ATGAGGCGTC, 1.07; as for CACGGAACT, 1.14.
As for TGAAGACGAT, the switch fluorescence ratio came to 1.06.
In the case of AGGGGCAGCG it was 1.03.
For CAAGGAGGTC, the switch fluorescence ratio amounted to 1.01.
As for TGCTGGCTGT, the switch fluorescence ratio came out at 0.989.
For the sequence TCCAATTTAC, the switch fluorescence ratio amounted to 1.56.
With GCATACACCA, the switch fluorescence ratio is 1.31.
As for CTCATCATGT, the switch fluorescence ratio turned out to be 0.941.
With TCACCACTTC, the switch fluorescence ratio was 1.16.
Consider TTGACACTA, for which the switch fluorescence ratio was found to be 1.08.
CCCGTCTGTG: the switch fluorescence ratio was determined as 1.04.
As for CTCATTGCCC, the switch fluorescence ratio was determined as 0.976.
In the case of TGCCACCCTT it was 1.11; in that of GGCACGGGCG, 0.998; in that of GAATATTATG, 1.
As to TCAGACTGGG, the switch fluorescence ratio is 1.02.
Take CTGCTTATTG: the switch fluorescence ratio stood at 0.975.
In the case of CTTGTGGTAG it was 0.958; in that of GCATTAGCGA, 0.992.
Consider ACTCCGGCCA, for which the switch fluorescence ratio came out at 3.75.
As for CCCGAAAGGC, the figure is 1.74; as for CCTAAATATC, 1.46; as for GAGCACCT, 1.13.
In the case of TTTTGTACTA it was 1; in that of AAGTGCTCTA, 0.963.
For TAGGCTACGA, the switch fluorescence ratio came out at 1.02.
As for ATTGTACATG, the switch fluorescence ratio stood at 0.971.
In the case of AAGTCGTAC, the switch fluorescence ratio turned out to be 1.03.
As to CGCGGAATT, the switch fluorescence ratio came to 1.03.
As for CACAGCGGA, the figure is 1.01; as for AGATAGCTGG, 1; as for GAGGCACTAT, 1.25.
In the case of CAACCTTTAA it was 0.993; in that of CTCATCATGG, 0.988; in that of CGGTCTTGAC, 0.975.
As for GCGAAGTTAT, the figure is 0.987; as for TTTAACGCTG, 0.951; as for ATGGACTGTG, 1.02.
As to AAGTCTCCC, the switch fluorescence ratio was 1.06.
For GGACCTCCCT, the switch fluorescence ratio amounted to 1.14.
As to AGCCTACGTA, the switch fluorescence ratio was found to be 1.11.
For CGGCGGAGAG, the switch fluorescence ratio worked out at 0.966.
Turning to GTGGAGAACC, the switch fluorescence ratio was found to be 1.01.
As to AGAAATATTA, the switch fluorescence ratio came out at 0.966.
As for ACCCCAGCAA, the switch fluorescence ratio stood at 2.04.
In the case of ACCTTTGTAG it was 1.04.
